# In the supplement of paper PMC10037445:
# In all, about 2,900 compounds were measured (“NF-kB SEAP reporter activity, fold change vs agonist alone”: median about 0.99, highest 2% from about 2.6 on). The list shows a part of the results.
# How the values were obtained:
# RAW-Dual [1] = test: NF-kB SEAP reporter activity, fold change vs agonist alone; cytotoxicity flag (confluency mask): not cytotoxic; higher = enhanced NF-kB activity
# Procedure, shortened: (§1)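 Library stock was pin-tooled at 50 nL into 384-well plates of RAW-Dual macrophages (50,000 cells/well, DMEM), followed 1 h later by a PRR agonist, and the cells were kept at 37 °C, 5% CO2. Supernatant collected after 20 hours was read for IRF by QuantiLuc luminescence and for NF-κB by QuantiBlue absorbance at 620 nm. Reporter activity is fold change over agonist-alone wells, and a well counted as cytotoxic when its IncuCyte confluency was below 70% of agonist controls in both mask sets.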
# RAW-Dual [2] = test: NF-kB SEAP reporter activity, fold change vs agonist alone; higher = enhanced NF-kB activity
# Procedure, shortened: as §1
# RAW-Dual [3] = test: NF-kB SEAP reporter activity, fold change vs agonist alone; cytotoxicity flag (confluency mask): cytotoxic (confluency <70% of control); higher = enhanced NF-kB activity
# Procedure, shortened: as §1
# [4] = agonist: ODN 1826 (TLR9) 0.5 ug/mL
# [5] = agonist: Pam2CSK4 (TLR2/6) 0.1 ug/mL
# [6] = agonist: Pam3CSK4 (TLR2/1) 0.1 ug/mL
# [7] = library stock concentration (final ~1000-fold dilution): 10 mM, cytotoxicity flag (confluency mask): not cytotoxic, agonist: Imiquimod (TLR7) […]
# [8] = library stock concentration (final ~1000-fold dilution): 10 mM, cytotoxicity flag (confluency mask): not cytotoxic, agonist: MPLA (TLR4) […]
# [9] = library stock concentration (final ~1000-fold dilution): 10 mM, cytotoxicity flag (confluency mask): cytotoxic (confluency <70% of control), agonist: Imiquimod (TLR7) […]
# [10] = library stock concentration (final ~1000-fold dilution): 10 mM, cytotoxicity flag (confluency mask): cytotoxic (confluency <70% of control), agonist: MPLA (TLR4) […]
smiles,measurement,setting,value
CNc1cc(-c2cccc(Cl)c2Cl)nc(N)n1 (library stock concentration (final ~1000-fold dilution): 10 mM),NF-kB SEAP reporter activity,RAW-Dual [1]; agonist: LPS (TLR4) 0.1 ug/mL,1.13
same,NF-kB SEAP reporter activity,RAW-Dual [1]; [4],0.836
same,NF-kB SEAP reporter activity,RAW-Dual [1]; [5],0.444
same,NF-kB SEAP reporter activity,RAW-Dual [1]; [6],0.699
COc1cc2nccc(Oc3ccc(NC(=O)NC4CC4)c(Cl)c3)c2cc1C(N)=O,NF-kB SEAP reporter activity,RAW-Dual [2]; [7],0.643
same,NF-kB SEAP reporter activity,RAW-Dual [2]; [8],0.7
COc1cc2nccc(Oc3ccc(NC(=O)NC4CC4)c(Cl)c3)c2cc1C(N)=O (library stock concentration (final ~1000-fold dilution): 10 mM),NF-kB SEAP reporter activity,RAW-Dual [1]; agonist: LPS (TLR4) 0.1 ug/mL,0.678
same,NF-kB SEAP reporter activity,RAW-Dual [1]; [4],0.503
same,NF-kB SEAP reporter activity,RAW-Dual [1]; [5],0.417
same,NF-kB SEAP reporter activity,RAW-Dual [1]; [6],0.484
c1nc2c(NC3CCCCC3)nc(Nc3ccc(N4CCOCC4)cc3)nc2[nH]1 (library stock concentration (final ~1000-fold dilution): 10 mM),NF-kB SEAP reporter activity,RAW-Dual [3]; agonist: LPS (TLR4) 0.1 ug/mL,0.369
same,NF-kB SEAP reporter activity,RAW-Dual [3]; [4],0.24
same,NF-kB SEAP reporter activity,RAW-Dual [3]; [5],0.102
same,NF-kB SEAP reporter activity,RAW-Dual [3]; [6],0.138
c1nc2c(NC3CCCCC3)nc(Nc3ccc(N4CCOCC4)cc3)nc2[nH]1,NF-kB SEAP reporter activity,RAW-Dual [2]; [9],0.378
same,NF-kB SEAP reporter activity,RAW-Dual [2]; [10],0.743
COc1nc(OCc2cccc(-c3ccccc3)c2C)ccc1CNCCNC(C)=O,NF-kB SEAP reporter activity,RAW-Dual [2]; [9],1.47
same,NF-kB SEAP reporter activity,RAW-Dual [2]; [10],1.74
COc1nc(OCc2cccc(-c3ccccc3)c2C)ccc1CNCCNC(C)=O (library stock concentration (final ~1000-fold dilution): 10 mM),NF-kB SEAP reporter activity,RAW-Dual [3]; agonist: LPS (TLR4) 0.1 ug/mL,1.32
same,NF-kB SEAP reporter activity,RAW-Dual [3]; [4],0.625
same,NF-kB SEAP reporter activity,RAW-Dual [3]; [5],1.26
same,NF-kB SEAP reporter activity,RAW-Dual [3]; [6],0.793
CCCOc1ccc(C(=O)OCCN(CC)CC)cc1N.Cl (library stock concentration (final ~1000-fold dilution): 10 mM),NF-kB SEAP reporter activity,RAW-Dual [1]; agonist: LPS (TLR4) 0.1 ug/mL,1.12
same,NF-kB SEAP reporter activity,RAW-Dual [1]; [4],0.834
same,NF-kB SEAP reporter activity,RAW-Dual [1]; [5],0.987
same,NF-kB SEAP reporter activity,RAW-Dual [1]; [6],1.1
CCCOc1ccc(C(=O)OCCN(CC)CC)cc1N.Cl,NF-kB SEAP reporter activity,RAW-Dual [2]; [7],0.739
same,NF-kB SEAP reporter activity,RAW-Dual [2]; [8],0.833
Cc1c(-c2ccccc2)oc2c(C(=O)OCCN3CCCCC3)cccc2c1=O.Cl,NF-kB SEAP reporter activity,"RAW-Dual [2]; library stock concentration (final ~1000-fold dilution): 10 mM water, cytotoxicity flag (confluency mask): not cytotoxic, agonist: Imiquimod (TLR7) […]",0.854
same,NF-kB SEAP reporter activity,"RAW-Dual [2]; library stock concentration (final ~1000-fold dilution): 10 mM water, cytotoxicity flag (confluency mask): not cytotoxic, agonist: MPLA (TLR4) […]",0.985
Cc1c(-c2ccccc2)oc2c(C(=O)OCCN3CCCCC3)cccc2c1=O.Cl (library stock concentration (final ~1000-fold dilution): 10 mM water),NF-kB SEAP reporter activity,RAW-Dual [1]; agonist: LPS (TLR4) 0.1 ug/mL,1.36
same,NF-kB SEAP reporter activity,RAW-Dual [1]; [4],1.15
same,NF-kB SEAP reporter activity,RAW-Dual [1]; [5],1.13
same,NF-kB SEAP reporter activity,RAW-Dual [1]; [6],1.13
CCCCCCCCCCCCCCCCn1cc[n+](Cc2ccccc2)c1C (library stock concentration (final ~1000-fold dilution): 10 mM),NF-kB SEAP reporter activity,RAW-Dual [1]; agonist: LPS (TLR4) 0.1 ug/mL,0.488
same,NF-kB SEAP reporter activity,RAW-Dual [1]; [4],1.36
same,NF-kB SEAP reporter activity,RAW-Dual [1]; [5],0.273
same,NF-kB SEAP reporter activity,RAW-Dual [1]; [6],0.294
CCCCCCCCCCCCCCCCn1cc[n+](Cc2ccccc2)c1C,NF-kB SEAP reporter activity,RAW-Dual [2]; [7],1.42
same,NF-kB SEAP reporter activity,RAW-Dual [2]; [8],0.947
Cc1cnc(-c2ccccc2C(C)C)nc1NCc1ccc(-n2ccnn2)cc1,NF-kB SEAP reporter activity,RAW-Dual [2]; [7],1.01
same,NF-kB SEAP reporter activity,RAW-Dual [2]; [8],1.26
Cc1cnc(-c2ccccc2C(C)C)nc1NCc1ccc(-n2ccnn2)cc1 (library stock concentration (final ~1000-fold dilution): 10 mM),NF-kB SEAP reporter activity,RAW-Dual [1]; agonist: LPS (TLR4) 0.1 ug/mL,1.5
same,NF-kB SEAP reporter activity,RAW-Dual [1]; [4],0.943
same,NF-kB SEAP reporter activity,RAW-Dual [1]; [5],0.73
same,NF-kB SEAP reporter activity,RAW-Dual [1]; [6],1.18
O=C(CCNNC(=O)c1ccncc1)NCc1ccccc1,NF-kB SEAP reporter activity,RAW-Dual [2]; [7],0.939
same,NF-kB SEAP reporter activity,RAW-Dual [2]; [8],1
O=C(CCNNC(=O)c1ccncc1)NCc1ccccc1 (library stock concentration (final ~1000-fold dilution): 10 mM),NF-kB SEAP reporter activity,RAW-Dual [1]; agonist: LPS (TLR4) 0.1 ug/mL,0.997
same,NF-kB SEAP reporter activity,RAW-Dual [1]; [4],1.03
same,NF-kB SEAP reporter activity,RAW-Dual [1]; [5],0.962
same,NF-kB SEAP reporter activity,RAW-Dual [1]; [6],0.955
